The inconclusive results got no clear call from the source; some entries with a clear call stand among them for comparison. Potencies beside an inconclusive call are fits to weak or partial responses and may not hold up. Calls of active or inactive are those of the source. Calls come from the whole dose curve; as a rule, active = well fitted inhibition curve with a large enough effect; inconclusive = small, poorly fitted or top-dose-only effect, or another doubt; inactive = no such curve, though single readings can be large or run the other way.
What follows are compounds tested against Vitamin D3 receptor (Homo sapiens) (UniProt P11473) (assay: qHTS for Inhibitors of the vitamin D receptor (VDR): Hit Validation using a Beta-Lactamase Assay (AID 602202)). Details: VDR beta-lactamase reporter cells, FRET ratio, cells co-treated with VDR agonist LG190178; series mostly up to 46.1 µM.
Sequence of UniProt P11473 (P11473 whole entry, looked up, the tested form may be a part): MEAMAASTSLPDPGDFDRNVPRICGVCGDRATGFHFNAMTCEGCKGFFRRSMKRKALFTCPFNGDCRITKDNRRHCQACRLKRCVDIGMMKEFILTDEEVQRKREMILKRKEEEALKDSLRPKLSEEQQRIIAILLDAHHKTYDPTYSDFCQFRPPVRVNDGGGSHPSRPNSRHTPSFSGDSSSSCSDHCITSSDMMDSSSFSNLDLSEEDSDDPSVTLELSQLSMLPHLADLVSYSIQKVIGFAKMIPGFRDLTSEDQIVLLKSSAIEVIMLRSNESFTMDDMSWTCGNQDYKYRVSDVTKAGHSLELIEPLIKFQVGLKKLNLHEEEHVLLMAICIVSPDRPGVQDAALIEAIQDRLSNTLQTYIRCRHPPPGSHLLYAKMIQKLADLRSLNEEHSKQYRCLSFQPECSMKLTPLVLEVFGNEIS
How it was run: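 Stably transfected HEK293 cells express a VDR–GAL4 DNA-binding-domain fusion driving a UAS beta-lactamase reporter, stimulated by agonist LG190178. Compounds were added 4 h after plating and incubated 18 h. A FRET beta-lactam substrate was then added for 2 h and cleaved substrate emission read at 447 nm.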
In the case of `CN1CCC2(CC1)N=C(c1ccc(F)cc1)C(=S)N2C(=O)c1ccc(C(C)(C)C)cc1`, the Potency is reported as inconclusive: 29.1 µM [inhibitor, single point]. With `O=C(CCN1CCOCC1)c1ccc(Br)cc1` the Potency was inconclusive: 25.9 µM [inhibitor, partial curve, poor fit]. With `O=C(Oc1ccccc1/C=C\C(=O)c1cc2ccccc2o1)c1ccccc1` the Potency was inconclusive: 20.6 µM [inhibitor, single point]. With `CN1CCC2(CC1)N=C(c1ccc(F)cc1)C(=S)N2C(=O)c1ccccc1` the Potency was “inactive”. With `COc1ccc(C(=O)/C=C/C(=O)N(CC(=O)NC2CCCCC2)CC2CCCO2)c(O)c1` (stereo not given) the Potency was active: 13 µM. For `O=C(/C=C/c1cccc([N+](=O)[O-])c1)c1ccc2c(c1)OCCO2`, the Potency was inconclusive: 23.1 µM [inhibitor, single point]. In the case of `CCCc1nnc(NC(=O)c2nc(S(=O)(=O)Cc3cccc(C)c3)ncc2Cl)s1`, the Potency is reported as active: 11.6 µM. For `C=CCn1c(O)c(C2=c3ccccc3=NC2=O)c2ccccc21`, the Potency was inconclusive: 29.1 µM [inhibitor, single point]. `O=C(/C=C/c1ccccc1Cl)c1cccnc1` was tested, and the Potency was inconclusive: 29.1 µM [inhibitor, single point]. `COc1ccc(C(=O)/C=C/C(=O)N(CC(=O)NC2CCCCC2)Cc2cccs2)c(O)c1` was tested, and the Potency was active: 7.31 µM. With `Cc1cccc2c1c1ccc3c(c1n2C)C(=O)C=CC3=O` the Potency was active: 7.31 µM. `COc1cccc(C(=O)C(C#N)=C(SC)SC)c1` was tested, and the Potency was inconclusive: 23.1 µM [inhibitor, partial curve, poor fit]. For `CS(=O)(=O)c1nc(-c2ccc(F)cc2)cc(C(F)(F)F)n1`, the Potency was inconclusive: 29.1 µM [inhibitor, single point]. In the case of `Cc1ccc2c(c1)C(=O)C(=O)N2Cc1ccc(Br)cc1`, the Potency is reported as “inactive”. With `CCN(CC)S(=O)(=O)c1cc(NC(=O)c2ccc3c(c2)NC(=O)C(C)S3)ccc1C` (stereo not given) the Potency was inconclusive: 29.1 µM [inhibitor, single point]. `CSc1ccc(/C=C/C(=O)c2c(O)cc(C)oc2=O)cc1` was tested, and the Potency was inconclusive: 16.4 µM [inhibitor, single point]. With `COc1cc(/C=C/C(=O)c2cccc([N+](=O)[O-])c2)cc(OC)c1OC` the Potency was inconclusive: 25.9 µM [inhibitor, single point]. For `CC(=O)Nc1cccc(C(=O)/C=C/c2ccc(C)cc2)c1`, the Potency was inconclusive: 29.1 µM [inhibitor, single point]. In the case of `COc1ccc(NC(=O)/C(Cl)=C(/Cl)S(=O)Cc2ccc(Cl)cc2)cn1` (stereo not given), the Potency is reported as active: 1.84 µM. With `O=C1NN(c2ccccc2)C(=O)/C1=C\c1cccc(OC(=O)c2cccs2)c1` the Potency was inconclusive: 29.1 µM [inhibitor, single point]. For `COc1cc(/C=C2\C(=O)ON=C2c2ccc(Cl)cc2)ccc1O`, the Potency was inconclusive: 18.4 µM [inhibitor, single point]. With `CCOC(=O)COc1ccc(/C=C/[N+](=O)[O-])c(OCC(=O)OCC)c1` the Potency was inconclusive: 29.1 µM [inhibitor, single point]. `CCOC(=O)N1C(=O)[C@@](CC)(c2ccccc2)N1C(=O)OCC` was tested, and the Potency was “inactive”. With `O=C1c2ccccc2CCC1CNCCc1ccc(O)cc1` (stereo not given) the Potency was inconclusive: 29.1 µM [inhibitor, single point]. In the case of `Cc1ccc(O)c(NC(=O)CCS(=O)(=O)c2nc(-c3cccs3)cc(C(F)(F)F)n2)c1`, the Potency is reported as inconclusive: 29.1 µM [inhibitor, single point]. With `CCOC(=O)CS(=O)(=O)c1nc(-c2ccccc2)cc(C(F)(F)F)n1` the Potency was inconclusive: 29.1 µM [inhibitor, single point]. With `COc1cc(C2Oc3ccccc3C=C2[N+](=O)[O-])cc(OC)c1OC` (stereo not given) the Potency was inconclusive: 29.1 µM [inhibitor, single point]. In the case of `CCS(=O)(=O)c1ncc(Cl)c(C(=O)Nc2ccc(S(=O)(=O)N(C)c3ccccc3)cc2)n1`, the Potency is reported as inconclusive: 23.1 µM [inhibitor, single point]. `Oc1cc2c(cc1C(c1ccc(Cl)c(Cl)c1)N1CCCC1)OCO2` (stereo not given) was tested, and the Potency was inconclusive: 20.6 µM [inhibitor, single point]. `CCC(=O)OCCNc1cc(Sc2nccn2C)c2nonc2c1[N+](=O)[O-]` was tested, and the Potency was inconclusive: 29.1 µM [inhibitor, single point]. `CCOC(=O)c1[nH]cc(-c2ccccc2)c1N1CCOCC1` was tested, and the Potency was “inactive”. `Cc1nc2c3cc(F)ccc3n(Cc3ccccc3)c2s1` was tested, and the Potency was inconclusive: 29.1 µM [inhibitor, single point]. `Cc1cc2nc3ccc(N(C)C)cc3nc2cc1N` was tested, and the Potency was “inactive”. In the case of `O=C1Nc2ccc(Br)cc2C1=Nc1cccnc1`, the Potency is reported as “inactive”. For `CCOc1cc(/C=C2\CN(C)C/C(=C\c3ccc(O)c(OCC)c3)C2=O)ccc1O`, the Potency was active: 2.91 µM. For `O=C(O)/C=C/C(=O)c1ccc2c(c1)NC(=O)CO2`, the Potency was “inactive”. In the case of `Cc1nnc(Sc2cc(NCCO)c([N+](=O)[O-])c3nonc23)s1`, the Potency is reported as inconclusive: 25.9 µM [inhibitor, single point]. For `CS(=O)(=O)c1ccc(S(=O)CC(=O)OCc2ccccc2)c([N+](=O)[O-])c1` (stereo not given), the Potency was inconclusive: 29.1 µM [inhibitor, single point]. For `Cc1ccc(NC(=O)C2=C(c3ccccc3)S(=O)(=O)CCS2(=O)=O)cc1`, the Potency was active: 6.51 µM. `COc1cc(/C=C2/C(=O)ON=C2C)cc(Cl)c1O` was tested, and the Potency was “inactive”.

Reference: PubChem BioAssay (NCATS)
Potency is the fitted concentration of half-maximal effect; tags give direction and shape of the fitted curve.
